For 22 molecules, binding signal results are on record in paper PMC12136788.

The other results are listed elsewhere or left out.

Sequences and labels used below:
B1: chr13:55314840:55314841:+_ENSMUSG00000021488_ENSMUST00000099490|mus_mus|FALSE|FALSE (ssRNA)
RNA: GGGAGUUCUACAGUCCGACGAUCAUCACUUUUUGCAGGGUCUUGAAAGGAUUCUGAUCCAUCAGCAGACCCACUUAAAUAUUCUACAUUGAUCAUGGAGGCCAAAUCCUGUAGUCUCCGCAGUGGAAUGUAACAAGAUGGAGACAACAGAGGAUUGAGCAUCA
B2: chr10:61154552:61154553:+_ENSMUSG00000020088_ENSMUST00000020285|mus_hu|FALSE|FALSE (ssRNA)
RNA: GGGAGUUCUACAGUCCGACGAUCGAGCUCUGGCCUCCAUAUCUGUUCAUAAUUUUAUGAAGUAUCUAAAUGUCAUUCAUUAGUUUAAAAAAAAAAAAGAAUAGAAAACUCUGGACCAAGUAAAUUGUGAACUCAAAAAGUUAGCAACAGAGGAUUGAGCAUCA
B3: chr4:115894766:115894767:+_ENSMUSG00000028698_ENSMUST00000030464|mus_hu|mus_mus_mus_hu_True|58_108 (ssRNA)
RNA: GGGAGUUCUACAGUCCGACGAUCUUCACACGGAAAUUGUACUUCGGGUUUUCCAACGGCCAGUACCAGUCCGGCCAACUACUAGGAACAGGGUCCUCCCCCUCUCUCCUACAGAACACAACAAAAUGCCCCCGAACUUUCAAGCAACAGAGGAUUGAGCAUCA
B4: chr2:32989838:32989839:-_ENSMUSG00000038831_ENSMUST00000042615|mus_hu|FALSE|FALSE (ssRNA)
RNA: GGGAGUUCUACAGUCCGACGAUCUGUUGAGCCUUUUGAUGCCUUUCUAGAGGAAUCUAUGCACAGGAUUUAUACUCAGGACUAGGAGAGAGGCAAAGUCUUGCCUAAGGAGAUAGGUGUGGUGGGGACUGUUUGUUGAGUGGUCAACAGAGGAUUGAGCAUCA
B5: chr9:136895555:136895556:-_ENSG00000169925_ENST00000303407|hu_mus|FALSE|FALSE (ssRNA)
RNA: GGGAGUUCUACAGUCCGACGAUCACCGUUUUUUUUUUUUUUUUACUCUGUGGUGUUGAGGCCGGCAUUGCAAAAAACAAGCUAAACUACUUACAAUGGACUCAUUUUCAGUAACUGACAUUUACAGGAAUAUACUAGAAACGGCAACAGAGGAUUGAGCAUCA
B6: chr1:66463027:66463028:+_ENSMUSG00000015222_ENSMUST00000114013|mus_mus|mus_mus_mus_hu_True|28_48 (ssRNA)
RNA: GGGAGUUCUACAGUCCGACGAUCUUUUCUUUCAGGAGUGGAAAUUCUGCCUCUCCCGGUUUUAAAAGGCUUUUCUUUUCUAUGUUUCUCGAGAGACGAUCUCCGAGCAUCCUUCUCAGCUUUCUCCUCUUUAGGAAUAGUUUCCAACAGAGGAUUGAGCAUCA
B7: chr10:126435856:126435857:+_ENSMUSG00000078429_ENSMUST00000105256|mus_hu|motif|central (ssRNA)
RNA: GGGAGUUCUACAGUCCGACGAUCAGUGGAAACCCUUACCUGACCCUUUUCCAAACUGGUCCUGUGUCCAAAGCUCCCCCGGUGAGAGGGACACGAACAUCAGGCUUUUGAUUUAGAAGCCCAAUCAGAGAGACACACUGUGUCCAACAGAGGAUUGAGCAUCA
B8: chr18:43482294:43482295:-_ENSMUSG00000024501_ENSMUST00000121805|mus_mus|motif|central (ssRNA)
RNA: GGGAGUUCUACAGUCCGACGAUCUGACAGAGUUUUGCCUAGCAUUUGAGAGGCCCUGGACUCAAUUGUCCAGCUCGGCAAAAUGAAAUAAACAGAAAUUCCCCACCUCAAAAAAAAAAAACAACAACAACAACAACAAAAAACCAACAGAGGAUUGAGCAUCA
B9: chr1:182792527:182792528:+_ENSMUSG00000038806_ENSMUST00000038091|mus_mus|FALSE|FALSE (ssRNA)
RNA: GGGAGUUCUACAGUCCGACGAUCCGAAGUCCCAGGAGCAUCCUCACUGUCAUCCUCUGAGCUGUCCUCUGAGCUUCCAGUACUGGACCCCUCGGCAGCCUCCAGCCCAUCCAUGCCCAACCAAAAGCAUUUCCUUUUCCUUUUCAACAGAGGAUUGAGCAUCA
B10: 9950424_9950544_840_CDS_ENSG00000101558_ENST00000340541|human|control|control (ssRNA)
RNA: GGGAGUUCUACAGUCCGACGAUCUGAUAGCUUCAUCAUUUCUCCCUGAAGUCUUUUACACUCUUCCAUUAGUUUCCUUGUUUCGGUAUCAUUAAGUGAAACACUGUGUGGUUUUGGCAUAGGUCCAUCUUGCUUAGAUGCAUUCAACAGAGGAUUGAGCAUCA
B11: chr4:57860909:57860910:+_ENSG00000047315_ENST00000314595|hu_hu|FALSE|FALSE (ssRNA)
RNA: GGGAGUUCUACAGUCCGACGAUCAUCUGUCAAGCCAUUCAAAAGGCAGUAAGUUGACCGCAACAUAAUUGGAAUUUUUCCUAUAAAAGUUUUCUGAUGCUGAGUCUGAAGUUGUUCUUCACCUUCUUUAAUGACUGUUUUUGUCAACAGAGGAUUGAGCAUCA
B12: chr16:13782116:13782117:+_ENSMUSG00000022682_ENSMUST00000023363|mus_mus|FALSE|FALSE (ssRNA)
RNA: GGGAGUUCUACAGUCCGACGAUCGACUUCUGUCACAGUUCCGCCAAACCGAACAGUUUUUUUCGGAGGAGAAUUGAAGAAAUCGCUCUCUAACGCGAGCAUAUCGGAAAGCCCAGUCCGCGACGCACUCAGCGUGGCAGAGGCCAACAGAGGAUUGAGCAUCA
B13: chr2:198351390:198351391:-_ENSG00000144381_ENST00000345042|hu_hu|hu_hu_hu_mus_False|78_108 (ssRNA)
RNA: GGGAGUUCUACAGUCCGACGAUCUCAUUCUCACUCUCCACAGAAAGGCUGCUUCUGUUCUCAUCUGUGGUGACACAGCGCUACAGUCCUGAUGCUCACAGAACAGUAGAGAUGCCUCAGUGAUUUAAGUUGAAAGCAGGACACCAACAGAGGAUUGAGCAUCA
B14: chr6:72301320:72301321:+_ENSMUSG00000058706_ENSMUST00000077783|mus_mus|FALSE|FALSE (ssRNA)
RNA: GGGAGUUCUACAGUCCGACGAUCUCUUUGAGGACCACAUAAACACAUAAAAGGCCUCUGCAGAACACUUUGUUCAUCUAGCUAUUCCUUCAUCAAGAAGUGGGAAUAACGGCAAAUUUGUAGGUGUCGGGUCCUCAGAUUCUUCAACAGAGGAUUGAGCAUCA
B15: chr7:135119151:135119152:+_ENSMUSG00000030795_ENSMUST00000128851|mus_mus|motif|central (ssRNA)
RNA: GGGAGUUCUACAGUCCGACGAUCACUUUGAAUCCCCAUUGAUAAUGCCACACACUUCAAGAAAAUGCUGUUUUCCCCCAGCGGGGGCUGGGAAAUGUCCUCAGCACAGAUGGGGGUAGGGGAAUUAGUAAUUCUUUUAAAUUACAACAGAGGAUUGAGCAUCA
B16: chr14:76904430:76904431:+_ENSMUSG00000022010_ENSMUST00000022587|mus_mus|mus_mus_mus_hu_True|78_98 (ssRNA)
RNA: GGGAGUUCUACAGUCCGACGAUCUGCAGCCAAAAACAGAGAGAGGGAAAAAAAGAGCAAGCUCCAGCAGCCUUGUAUAAGCUAGAUAAAAUCUUCUGGCUUUCCGCAGCCCAGGGAGAAACAGAAAACGGCAGCCCUAAUUUACAACAGAGGAUUGAGCAUCA
B17: chr11:77340882:77340883:-_ENSG00000074201_ENST00000525064|hu_mus|FALSE|FALSE (ssRNA)
RNA: GGGAGUUCUACAGUCCGACGAUCAACAUACAAAUGCUCUUGAGGGUAAGCGUUUGGAUCCCUGGACACCGCAUGUAAACUAAUGGUGGGGUAUUCCAGUGAGAAUCCUAAUCCCGAACCAUCUAACCAGGACAGGCGGCUCUCCAACAGAGGAUUGAGCAUCA
B18: chr12:27888400:27888401:+_ENSG00000061794_ENST00000081029|hu_mus|motif|central (ssRNA)
RNA: GGGAGUUCUACAGUCCGACGAUCGGCCUUGCAGUACCGCUCUCCUACAAGCUUAAUGAGUUUUUUCUUGGCAUGAUUGUCGGAAUUCAAACUGGAAAGUUUAACCCUUAACGUUACGGCUCGGGCUUUGGGGUUUCGAAUAGACAACAGAGGAUUGAGCAUCA
B19: chr1:130270616:130270617:-_ENSMUSG00000026356_ENSMUST00000027602|mus_hu|motif|central (ssRNA)
RNA: GGGAGUUCUACAGUCCGACGAUCGUAAUGGUAAUUAAAAGCCAUUUCAAUGUCCAAACCAACAAACUCAGUUAGAUGUCGGUGGGUAUUAGAGUCUUCCGCUCUGAAUACUGGUCCAAUAGAGAAAACCUUCUCAAAAUCAGCCAACAGAGGAUUGAGCAUCA
B20: chr2:232320318:232320319:-_ENSG00000115053_ENST00000322723|hu_hu|hu_hu_hu_mus_True|38_68 (ssRNA)
RNA: GGGAGUUCUACAGUCCGACGAUCACUAUUAAAGUCUACAAAACCAAACCCUUUGGAAGAACCAGUUUCCCGGUCAGUGACUAUUCUUGCACGAACAGAGCCGUCAAAUGAUUCUUUUAAGGUCUCUUCAGUGGUAUCCUCAGACAACAGAGGAUUGAGCAUCA
B21: chr2:202488911:202488912:-_ENSG00000155755_ENST00000286196|hu_mus|hu_hu_hu_mus_False|18_38 (ssRNA)
RNA: GGGAGUUCUACAGUCCGACGAUCAUUGAAACAUUUUUCAUAAUCUCCAGUAGCAUUUCAGCAUUAUGUAACAAAAGCUCAAUUGUAAAUACAUGUAUAUACAUCUUAUACACUUAAAUUUAAAAACGGGGAGCGCAGGCGCCACAACAGAGGAUUGAGCAUCA
B22: chr8:42711381:42711382:-_ENSG00000120925_ENST00000527424|hu_mus|FALSE|FALSE (ssRNA)
RNA: GGGAGUUCUACAGUCCGACGAUCCACUUCUCGAUACAUAAUGGAGAUGUAAAUAAGCAACAAAAAGAUAACAAAGAAAUCAUCUAGAAAGCCCAGAAUUCCAAACAAGGCUUCAGGUACAAAAUCUAGAGGUGAUAUUAAAUACAACAGAGGAUUGAGCAUCA

This assay addresses T1, UNK ZnF1-3 (human, UniProt Q9C0B0 31-174).
T1 sequence: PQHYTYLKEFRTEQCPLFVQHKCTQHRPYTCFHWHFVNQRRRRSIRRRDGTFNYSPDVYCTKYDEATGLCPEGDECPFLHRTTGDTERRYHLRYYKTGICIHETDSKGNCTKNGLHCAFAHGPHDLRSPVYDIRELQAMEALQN
The assay can be described thus: nsRBNS (natural sequence RNA bind-n-seq); RBNS binding buffer (assumed for nsRBNS): 25 mM Tris pH 7.5, 150 mM KCl, 3 mM MgCl2, 0.01% Triton X-100, 500 ug/ml BSA, 20 U/ml SUPERase-In, 4 C; UNK is unkempt and MSI1 is Musashi-1; names of the RNAs are library labels; protein concentration not given here; high values mean tight binding.
The molecule B1 displayed a binding signal of 0.694 enrichment R. In turn, B2 showed a binding signal of 1.65 enrichment R.

With B3, the binding signal came out at 0.946 enrichment R. B4 came in with a binding signal of 1.3 enrichment R. For B5, the binding signal was 1 enrichment R. B6 displayed a binding signal of 0.525 enrichment R. To B7 belongs 0.921 enrichment R. In turn, B8 had a binding signal of 3.24 enrichment R. To B9 belongs 0.804 enrichment R; to B10, 0.497 enrichment R. In turn, B11 gave a binding signal of 0.922 enrichment R. Regarding B12, the binding signal is 0.622 enrichment R. B13: the binding signal worked out at 1.15 enrichment R.

Molecule B14 returned a binding signal of 0.782 enrichment R.

B15 returned a binding signal of 1.26 enrichment R.

Regarding B16, the binding signal was 2.9 enrichment R. For B17, the binding signal is 1.14 enrichment R. In turn, B18 showed a binding signal of 0.786 enrichment R.

B19 displayed a binding signal of 0.759 enrichment R.

On to B20, for which the binding signal is 0.764 enrichment R.

Molecule B21 returned a binding signal of 2.41 enrichment R. The value for B22 was 2.6 enrichment R.
